# Experimental data: paper PMC11995724, “Antibiotic target discovery by integrated phenotypic and activity-based profiling of electrophilic fragments” (Cell chemical biology, 2025)
# The whole screen tested about 3,200 compounds, of which about 75 (2%) showed an effect of 50% or more. This is one part of the list.
# System: T1, S. aureus MSSA476
# T1 construct: MSSA476
# Parameters: species or system S. aureus MSSA476 (TSB) or V. cholerae SAD30 (LB); 384-well bacterial growth screen at 25 uM, OD600 relative to DMSO control
# Settings: relative growth, OD600, TSB; 25 µM; inhibitor
row,SMILES,% of control remaining [%]
1,"O=C(CCl)NCc1ccc(N2CCOCC2)nc1 [6-E22, 2-chloro-N-{[6-(morpholin-4-yl)pyridin-3-yl]methyl}acetamide]",98
2,"Cc1c(C#N)c(NC(=O)CCl)n(C2CCCCC2)c1C [4-N18, 2-chloro-N-(3-cyano-1-cyclohexyl-4,5-dimethyl-1H-pyrrol-2-yl)acetamide]",117.008
3,"C=CC(=O)N(CC)CC(=O)N1CCn2c(nc(C)c2C)C1 [2-B18, N-(2-{2,3-dimethyl-5H,6H,7H,8H-imidazo[1,2-a]pyrazin-7-yl}-2-oxoethyl)-N-ethylprop-2-enamide]",116.623
4,"C=CC(=O)N1CCOC(c2ccc(F)c(C)c2)C1 (stereo not shown) [3-A09, 1-[2-(4-fluoro-3-methylphenyl)morpholin-4-yl]prop-2-en-1-one]",117.022
5,"O=C(CCl)NC1CCN(C(=O)c2ccccc2)C1 (stereo not shown) [7-P06, N-(1-benzoylpyrrolidin-3-yl)-2-chloroacetamide]",111.146
6,"COc1ccc(CC2CCN2C(=O)C(C)Cl)cc1 (stereo not shown) [5-O22, 2-chloro-1-{2-[(4-methoxyphenyl)methyl]azetidin-1-yl}propan-1-one]",104.189
7,"CN1C=CC(=C(C#N)C(=O)CCl)C=C1 [10-G21, 4-chloro-2-(1-methyl-1,4-dihydropyridin-4-ylidene)-3-oxobutanenitrile]",112.5
8,"C=CC(=O)NCCC(=O)N1CCOC(c2nc(C)cs2)C1 (stereo not shown) [3-K04, N-{3-[2-(4-methyl-1,3-thiazol-2-yl)morpholin-4-yl]-3-oxopropyl}prop-2-enamide]",92.2943
9,"Cc1cccc(NC(=O)C(C#N)=Cc2cc(C)n(C3CC3)c2C)c1 [9-D17, 2-cyano-3-(1-cyclopropyl-2,5-dimethyl-1H-pyrrol-3-yl)-N-(3-methylphenyl)prop-2-enamide]",114.757
10,"CCc1ccc(NC(=O)C(C#N)=Cc2cccn2C)cc1 [8-A20, 2-cyano-N-(4-ethylphenyl)-3-(1-methyl-1H-pyrrol-2-yl)prop-2-enamide]",76.0166
11,"C=CC(=O)NCc1cn(C(F)F)c2ccccc12 [2-F11, N-{[1-(difluoromethyl)-1H-indol-3-yl]methyl}prop-2-enamide]",107.92
12,"CC(=O)Nc1ccc(NC(=O)C(C)Cl)cc1 (stereo not shown) [5-N06, 2-chloro-N-(4-acetamidophenyl)propanamide]",128.233
13,"O=C(CCl)Cc1cc(Cl)cc(Cl)c1 [10-I15, 1-chloro-3-(3,5-dichlorophenyl)propan-2-one]",23.125
